Data as given in paper PMC12847774, “SERPINB3 enhances NPM1 sumoylation via inhibiting SENP3’s activity and promotes lung tumorigenesis” (Cell Death & Disease, 2025).
Results are given in words; binding and its absence hold for the method and conditions named. For part of these data: In cells and extracts the contact can be indirect. Some entries that bind do so weakly or less than the wild type. For part of these data: Tags and fused reporters may be left off the sequences shown.

Sequences of proteins named here, by UniProt entry; tags and fusion partners are left off. A change or cut given only in a name is not applied to a line headed by its entry. A line that says so, or that is headed by a name, gives the form on record, which may keep a tag or linker.
UniProt P06748: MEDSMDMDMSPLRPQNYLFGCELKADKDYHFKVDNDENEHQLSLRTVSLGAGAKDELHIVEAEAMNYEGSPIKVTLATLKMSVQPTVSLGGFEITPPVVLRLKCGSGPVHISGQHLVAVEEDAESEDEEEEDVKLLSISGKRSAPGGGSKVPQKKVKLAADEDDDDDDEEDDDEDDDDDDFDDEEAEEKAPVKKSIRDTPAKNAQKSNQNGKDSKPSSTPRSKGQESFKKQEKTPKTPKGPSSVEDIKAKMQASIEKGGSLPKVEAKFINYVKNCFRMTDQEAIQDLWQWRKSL
UniProt Q9H4L4: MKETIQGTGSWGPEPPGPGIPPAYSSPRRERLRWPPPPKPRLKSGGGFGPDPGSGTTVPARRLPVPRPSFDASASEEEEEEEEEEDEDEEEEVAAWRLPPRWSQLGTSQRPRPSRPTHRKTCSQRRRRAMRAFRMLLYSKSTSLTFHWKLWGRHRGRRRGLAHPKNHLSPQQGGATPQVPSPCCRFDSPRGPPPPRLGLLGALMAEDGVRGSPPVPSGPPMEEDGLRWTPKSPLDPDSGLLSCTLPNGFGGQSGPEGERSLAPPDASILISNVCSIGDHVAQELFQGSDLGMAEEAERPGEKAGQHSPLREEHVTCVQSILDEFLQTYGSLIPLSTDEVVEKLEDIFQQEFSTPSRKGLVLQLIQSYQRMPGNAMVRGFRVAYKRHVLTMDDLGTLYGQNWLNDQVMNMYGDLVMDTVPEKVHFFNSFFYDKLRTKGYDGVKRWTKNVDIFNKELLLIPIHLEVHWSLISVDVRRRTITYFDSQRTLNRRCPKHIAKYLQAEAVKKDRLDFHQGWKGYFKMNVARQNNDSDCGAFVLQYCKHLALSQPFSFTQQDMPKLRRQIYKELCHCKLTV
SENP3 Δ265-287 deletion mutant (Q9H4L4, form named): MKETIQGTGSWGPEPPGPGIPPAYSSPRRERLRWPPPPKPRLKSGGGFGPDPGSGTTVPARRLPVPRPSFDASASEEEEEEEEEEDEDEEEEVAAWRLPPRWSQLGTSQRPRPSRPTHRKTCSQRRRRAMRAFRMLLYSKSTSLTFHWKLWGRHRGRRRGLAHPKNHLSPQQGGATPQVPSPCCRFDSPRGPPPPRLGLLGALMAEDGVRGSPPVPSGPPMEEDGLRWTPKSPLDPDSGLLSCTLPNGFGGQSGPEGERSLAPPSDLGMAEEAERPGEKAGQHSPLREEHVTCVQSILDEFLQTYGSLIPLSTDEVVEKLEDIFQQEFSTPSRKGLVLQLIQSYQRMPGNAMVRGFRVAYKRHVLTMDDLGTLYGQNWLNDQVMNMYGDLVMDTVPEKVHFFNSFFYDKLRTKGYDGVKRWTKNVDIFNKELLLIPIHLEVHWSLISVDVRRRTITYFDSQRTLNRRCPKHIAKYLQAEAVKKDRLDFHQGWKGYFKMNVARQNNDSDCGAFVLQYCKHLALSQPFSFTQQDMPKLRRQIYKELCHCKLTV

Tests used:
[1] = target: T1, Flag-SERPINB3 (UniProt P29508); assay: co-IP; anti-Flag IP from nuclear fractions of PC9 cells overexpressing Flag-SERPINB3; blots for SENP3 and NPM1
T1 sequence: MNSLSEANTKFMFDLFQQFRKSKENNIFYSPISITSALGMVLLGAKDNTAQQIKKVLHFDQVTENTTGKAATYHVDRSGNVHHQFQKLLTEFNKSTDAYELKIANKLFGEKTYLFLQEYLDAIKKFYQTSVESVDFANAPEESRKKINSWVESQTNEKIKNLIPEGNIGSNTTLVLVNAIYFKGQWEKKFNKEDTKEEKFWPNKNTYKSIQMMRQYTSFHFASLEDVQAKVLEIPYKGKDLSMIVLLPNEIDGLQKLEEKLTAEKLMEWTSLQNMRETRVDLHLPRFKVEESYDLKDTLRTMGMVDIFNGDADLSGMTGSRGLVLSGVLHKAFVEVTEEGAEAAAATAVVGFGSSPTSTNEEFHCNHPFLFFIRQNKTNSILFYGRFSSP

[2] = target: T1, Flag-SERPINB3; assay: SEC; lysate of PC9 cells overexpressing Flag-SERPINB3 on Superose 6 Increase 10/300; fractions blotted
[3] = target: T1, Flag-SERPINB3; assay: co-IP; anti-Flag IP from whole lysates of PC9 cells overexpressing Flag-SERPINB3; protein A/G magnetic beads, IP buffer 50 mM Tris-HCl pH 8.0, 150 mM NaCl, 1 mM EDTA, 0.5% NP-40; blots for SENP3 and NPM1
[4] = target: T2, SERPINB3, endogenous (human (endogenous in PC9, H1975, HCC4006)) (UniProt P29508); assay: co-IP; IP of endogenous SERPINB3 or endogenous NPM1 from nuclear lysates of PC9, H1975 and HCC4006 cells; IgG as IP control; IP buffer 50 mM Tris-HCl pH 8.0, 150 mM NaCl, 1 mM EDTA, 0.5% NP-40
T2 sequence: T1 sequence

[5] = target: nucleophosmin (NPM1), endogenous (human (endogenous in PC9, H1975, HCC4006)) (UniProt P06748); assay: SEC; lysate of PC9 cells overexpressing Flag-SERPINB3 on Superose 6 Increase 10/300; fractions blotted
[6] = target: T3, Flag-SERPINB3 (HEK293T) (UniProt P29508); assay: SEC; lysate of HEK293T cells transfected with Flag-SERPINB3, HA-NPM1 and His-SENP3 loaded directly on Superose 6 Increase 10/300; fractions blotted
T3 sequence: T1 sequence

[7] = target: His-SENP3 (HEK293T) (UniProt Q9H4L4); assay: pull-down + SEC; His-SENP3 enriched on Ni-NTA beads from lysate of HEK293T cells transfected with Flag-SERPINB3, HA-NPM1 and His-SENP3, eluted with 300 mM imidazole, then Superose 6 Increase 10/300 in 20 mM Tris-HCl pH 8.0, 150 mM NaCl, 1% glycerol; fractions blotted
[8] = target: T4, Flag-SERPINB3 purified protein (UniProt P29508); assay: co-IP; in vitro immunoprecipitation with Flag antibody using purified recombinant proteins; both purified
T4 sequence: T1 sequence

[9] = target: HA-NPM1 (HEK293T) (UniProt P06748); assay: SEC; lysate of HEK293T cells transfected with Flag-SERPINB3, HA-NPM1 and His-SENP3 loaded directly on Superose 6 Increase 10/300; fractions blotted
[10] = target: VN-HA-NPM1 (UniProt P06748); assay: split reporter; BiFC with Venus fragments VN (1-173) and VC (155-239) in transfected PC9 cells, imaged after 36-48 h
[11] = target: T5, VN-Flag-SERPINB3 (UniProt P29508); assay: as above
T5 sequence: T1 sequence

nucleophosmin (NPM1), endogenous (from UniProt P06748 1-294)
binding [1]: binds | binding [2]: binds | binding [3]: binds | binding [4]: binds

SUMO-specific proteinase 3 (SENP3), endogenous (from UniProt Q9H4L4 1-574) (enzyme)
binding [1]: binds | binding [5]: binds | binding [2]: binds | binding [3]: binds | binding [4]: binds

HA-NPM1 (HEK293T) (from UniProt P06748 1-294)
binding [6]: binds | binding [7]: binds

SENP3 Δ265-287 deletion mutant (from UniProt Q9H4L4 1-574) (enzyme)
binding [8]: no binding

His-SENP3 (HEK293T) (from UniProt Q9H4L4 1-574) (enzyme)
binding [9]: binds | binding [6]: binds

VC-HA-SENP3 (from UniProt Q9H4L4 1-574) (enzyme)
binding [10]: binds | binding [11]: binds

VC-HA-NPM1 (from UniProt P06748 1-294)
binding [11]: binds

B1: Flag-SERPINB3 purified protein (natural protein, UniProt P29508 1-390, looked up)
chain: T1 sequence
notes: SERPINB3; cloned into pET-28a(+) between BamHI and HindIII; the methods name only pET-28a (+)-SERPINB3; also called SCCA1; pET-28a (+)-SERPINB3; source: E. coli BL21(DE3), purified (Ni-NTA)
binding [7]: binds
